Measured values as given in PMC4336329 (PLoS ONE, 2015).
Hit rate of the full screen: of about 310,000 compounds, about 14,000 (4.5%) showed an effect of 50% or more. Effects have a minus sign here. The list shows a part of the results.

Target: human ether-à-go-go-related gene (hERG) potassium channel (human, UniProt Q12809)
Experiment: primary screen, population patch clamp on CHO cells stably expressing hERG
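Also: peak tail current of the secondary pulse compared with the same well before compound.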

Sequence of human ether-à-go-go-related gene (hERG) potassium channel (Q12809 whole entry, looked up): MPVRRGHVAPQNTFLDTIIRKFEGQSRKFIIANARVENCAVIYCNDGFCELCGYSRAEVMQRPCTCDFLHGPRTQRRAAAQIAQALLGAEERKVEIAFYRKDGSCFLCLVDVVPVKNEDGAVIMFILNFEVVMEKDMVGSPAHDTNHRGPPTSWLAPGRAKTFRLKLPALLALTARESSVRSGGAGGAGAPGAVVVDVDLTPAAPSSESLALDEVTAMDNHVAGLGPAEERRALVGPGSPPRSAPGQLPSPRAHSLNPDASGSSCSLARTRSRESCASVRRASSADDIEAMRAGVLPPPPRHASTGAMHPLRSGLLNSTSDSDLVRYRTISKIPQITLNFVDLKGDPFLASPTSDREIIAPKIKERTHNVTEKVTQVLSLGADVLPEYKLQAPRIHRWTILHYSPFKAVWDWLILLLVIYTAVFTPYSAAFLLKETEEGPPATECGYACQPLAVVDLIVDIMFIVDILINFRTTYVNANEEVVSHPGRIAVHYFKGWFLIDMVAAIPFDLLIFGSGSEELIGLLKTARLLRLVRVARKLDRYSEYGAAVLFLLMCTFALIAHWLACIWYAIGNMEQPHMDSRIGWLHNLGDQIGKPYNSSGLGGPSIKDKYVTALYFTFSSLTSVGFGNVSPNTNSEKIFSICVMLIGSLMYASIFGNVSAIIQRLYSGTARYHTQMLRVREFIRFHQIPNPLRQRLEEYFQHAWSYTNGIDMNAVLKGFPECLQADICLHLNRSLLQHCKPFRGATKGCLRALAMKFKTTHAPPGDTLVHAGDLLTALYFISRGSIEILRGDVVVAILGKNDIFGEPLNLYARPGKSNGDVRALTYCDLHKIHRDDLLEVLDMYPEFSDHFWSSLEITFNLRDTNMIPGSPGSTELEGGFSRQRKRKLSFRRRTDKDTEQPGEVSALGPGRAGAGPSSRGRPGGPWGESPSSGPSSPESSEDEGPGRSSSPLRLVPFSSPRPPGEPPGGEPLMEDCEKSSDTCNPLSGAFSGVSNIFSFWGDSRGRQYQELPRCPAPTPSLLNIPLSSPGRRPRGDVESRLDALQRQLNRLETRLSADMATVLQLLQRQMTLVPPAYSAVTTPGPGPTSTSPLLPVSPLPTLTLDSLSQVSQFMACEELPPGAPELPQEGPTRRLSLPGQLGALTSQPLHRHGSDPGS

Compound | hERG current change (%, negative = inhibition) at 10uM [%]
CCOc1ccc2nc(NC(=O)CSc3nc(SC)ns3)sc2c1 | 0.808
COC(=O)c1ccc(CN2C(=O)c3ccccc3C2=O)cc1 | 8.01
COc1ccccc1C(CNC(=O)c1cc(S(=O)(=O)N2CCOCC2)ccc1C)N1CCCC1 (centres unmarked) | 2.53
CNNC(=O)C(=O)NNS(=O)(=O)c1ccccc1 | 10.1
COc1ccc(C(=O)NC2CC2)cc1OC1CCN(Cc2cnn(C)c2C)CC1 | -27.2
CC(=O)Nc1cc2c(cc1NC(=O)Cn1nc(-c3ccc(F)cc3)ccc1=O)OCCO2 | -8.86
CC1CC(C)CN(C(=O)c2ccc3c(=O)n(Cc4ccc5c(c4)OCO5)c(=S)[nH]c3c2)C1 (centres unmarked) | 9.38
OC[C@H]1NC[C@@H](O)[C@@H]1O | 18.7
COc1ccc(CCNC(=O)c2cc3c(=O)n4cccc(C)c4nc3n(CCCN3CCOCC3)c2=N)cc1 | -76.2
CC(C)(C)N1C(=O)c2ccc(C(=O)Nc3ccc(-c4nc5ccccc5[nH]4)cc3)cc2C1=O | 16.8
CC(C(=O)Nc1ccon1)N1C(=O)c2ccccc2S1(=O)=O (centres unmarked) | 1.49
Cl.c1ccc(C(c2ccccc2)N2CCN(Cc3nnnn3C3CCCC3)CC2)cc1 | -9.83
O=C(c1ccc2nc(N3CCOCC3)sc2c1)N1CCCC1 | -10.8
CC(=O)Nc1ccc(S(=O)(=O)N2CCSC2C(=O)O)cc1 (centres unmarked) | 0.312
FC(F)(F)c1ccc(-c2nnc(-c3cccnc3)o2)cc1 | 7.74
CCOC(=O)Cc1cnc(NC(=O)CSc2nc(C)cc(C)n2)s1 | 22
Cc1noc(C)c1COC(=O)C1CC(O)CN1S(=O)(=O)c1ccc(Cl)cc1 (centres unmarked) | -8.48
CCc1nnc(NC(=O)CCN2C(=O)C3CCCCC3C2=O)s1 (centres unmarked) | 4.31
CSc1ccccc1COC(=O)Nc1ccccc1C | -16.9
COc1cc2c(cc1OC)CN(C1CCC(C)CC1)CC2 (centres unmarked) | 4.15
CN(C(=O)COC(=O)c1ccccc1NCCO)C1CCS(=O)(=O)C1 (centres unmarked) | -12.9
CCN(CC)CCCNC(=O)Cn1cnc2sc(C)c(S(=O)(=O)N3CCC(C)CC3)c2c1=O | 11.1
COc1ccc(-c2nnc(SC(C)C(=O)NCc3ccc4c(c3)OCO4)n2Cc2ccco2)cc1 (centres unmarked) | -55.1

Compound | hERG current change (%, negative = inhibition) at 10uM [%]
COc1ccc(NC(=S)N(CCCN2CCCC2)Cc2cccn2Cc2ccc(Cl)cc2)cc1Cl | -6.98
COc1ccc(C(CC(=O)O)c2ccc3c(c2)OCO3)cc1 (centres unmarked) | 14.7
CC(C)NC(=O)CCNS(=O)(=O)c1ccc(Br)cc1 | 7.82
CNC(=O)c1sc2nc(-c3ccc(OC)cc3)cn2c1C | -8.45
COCCn1c(Br)nc2c1c(=O)n(C)c(=O)n2C | 8.14
CC(=O)Nc1ccc(NC(=O)CSc2nnc(-c3cc(C)[nH]n3)n2N)cc1 | 3.51
Cc1ccc(NC(=S)N2CCCC(O)C2)cc1 (centres unmarked) | 2.57
COc1cccc(OCc2cc(C(=O)NCCN3CCCCC3CO)no2)c1 (centres unmarked) | 2.5
COc1ccc(S(=O)(=O)N2CCN(C(=S)NCCc3ccccc3)CC2)cc1 | 13.9
Nc1c(Cl)cc(-c2csc(N3CCCC3c3nc4cc(Cl)c(Cl)cc4n3CCCO)n2)cc1Cl (centres unmarked) | -2.8
COc1cccc(OCc2cc(C(=O)NC3CCOCC3)no2)c1 | 6.95
CCC(=O)Nc1nnc(CSCc2ccccc2)s1 | 0.817
COc1ccc2cc(C(=O)C3CCCN(C(=O)C4=NN(C)C(=O)CC4)C3)ccc2c1 (centres unmarked) | -23.8
CCN(CC(=O)Nc1ccc2c(c1)OCCO2)C(=O)c1cccc(S(=O)(=O)N2CCOCC2)c1 | 7.97
COC(=O)C(Cc1cnc(Cl)s1)(C(=O)OC)c1ccc(C(F)(F)F)cc1[N+](=O)[O-] | -2.69
CC(C)c1nc(SCC(=O)Nc2ccc(N3CCOCC3)cc2)c2ccccc2n1 | -7.78
N#CCCN(C(=O)COC(=O)CNC(=O)c1cccs1)c1ccc(F)cc1 | -19.6
CC(C)(C)c1ccccc1NC(=O)Cn1cnc2cc([N+](=O)[O-])ccc2c1=O | -10.3
CCOC(=O)C1CCN(C(=O)/C=C/c2cc(OC)c(OC)c(OC)c2)CC1 | -1.38
Cc1c(NC2=C(Cl)C(=O)N(c3ccccc3Cl)C2=O)c(=O)n(-c2ccccc2)n1C | 4.52
COc1ccc(NC(=O)COC(=O)CC2CCCCC2)cc1 | -15.8
O=c1oc2ccccc2c(Nc2ccc3ccccc3c2)c1[N+](=O)[O-] | -3.9
NS(=O)(=O)c1cccc(NC(=O)CCCNC(=O)c2ccc(Cl)cc2)c1 | 4.85

Compound | hERG current change (%, negative = inhibition) at 10uM [%]
O=C(CCl)NNc1nc(-c2ccccc2)c2cc(Cl)ccc2n1 | 1.46
CCc1ccccc1NC(=O)CC(c1ccc(OC)cc1)n1cccc1 (centres unmarked) | -6.25
Nc1ccccc1C(=O)NC1CCCCNC1=O (centres unmarked) | 26.2
CC(Sc1ccc(S(=O)(=O)N2CCOCC2)cc1[N+](=O)[O-])C(=O)O (centres unmarked) | -1.58
O=C(Nc1ccc(N2CCOCC2)cc1N1CCOCC1)c1ccco1 | -8.33
O=S(=O)(/N=C(\Sc1ccc(Cl)cc1)c1ccccc1)c1ccccc1 | 28.5
Cc1cccc(OCCCN2CCCCCC2)c1 | -28.2
CCn1c(SCC(=O)N/N=C/c2ccccc2OCC(=O)O)nnc1-c1ccc(OC)cc1 | 21.7
CCOP(=O)(OCC)C(Nc1cccc(C)c1)c1ccc(F)cc1 (centres unmarked) | 2.94
CCCn1c(SCC(=O)NCc2ccccc2Cl)n[nH]c1=O | 2.57
C/C(=N\NC(=O)c1ccn(C)n1)c1cccc(NC(=O)c2ccc(C)s2)c1 | -4.34
Cn1c(=O)[nH]c(=O)c2c1nc(N1CCCCCC1)n2Cc1cccc2ccccc12 | 3.64
Cn1c(=O)c(=O)n(C)c2cc(S(=O)(=O)N3CCCCC3)ccc21 | -14.4
O=c1oc2cc(OCc3ccc(F)cc3F)ccc2cc1-c1ccc2ccccc2n1 | 1.72
Cc1noc(C)c1CSc1nnc2scc(-c3ccc(Cl)cc3)n12 | -49.8
CC(=O)c1cnc2c(-c3ccc(Cl)cc3)cnn2c1C | -1.45
CCOC(=O)N1CCC(NC(=O)c2sc(-n3cccc3)nc2C)CC1 | -4.74
C=CCNC(=S)N/N=C/c1ccccc1OCCOc1ccccc1 | -0.289
Br.Nc1ccc(Nc2nc(-c3ccncc3)cs2)cc1 | -17.1
COc1ccc(OC)c(-n2c(C)cc(/C=C3\C(=N)N4N=C(CC(=O)N5CCOCC5)SC4=NC3=O)c2C)c1 | 16.9
O=C(NC1CCN(C(=O)Nc2ccccc2Cl)CC1)c1cccc(F)c1 | 4.81
Cc1cc(=O)[nH]c(SCC(=O)Nc2nc(-c3ccccc3)cs2)n1 | 10.4
CCc1ccccc1NC(=O)CC1S/C(=N\c2nccs2)N(CC)C1=O (centres unmarked) | -3.6

Compound | hERG current change (%, negative = inhibition) at 10uM [%]
Cc1ccc(-n2ncc3c(=O)n(CC(=O)N(C)C)cnc32)cc1C | 4.69
C=CCNC(=O)c1onc(CSc2cccc(OCC)c2)c1C(=O)O | 6.3
CC(Cc1cnccn1)NC(=O)c1cc(COc2ccc(F)cc2F)on1 (centres unmarked) | 4.3
Cc1ccccc1N(Cc1cc(=O)[nH]c2ccccc12)C(=O)C(C)C | 10.5
Cc1cccc(CS(=O)(=O)Cc2ccc(C(=O)O)o2)c1 | 16.5
CCn1c(N)c(C(=O)NCCOC)sc1=S | 10.5
Cc1ccccc1Nc1nc(N)nc(COC(=O)C2CCCCC2)n1 | 8.35
CCCNC(=S)N1CCC(C(=O)c2ccc(Cl)cc2)CC1 | -1.59
Cc1ccc(/C=N/NC(=O)NC23CC4CC(CC(C4)C2)C3)o1 | -21.4
CCn1c(=O)c(C(=O)Nc2ccc(C)cc2C)c(O)c2ccccc21 | 7.12
CCOc1c(CNCCN2CCOCC2)cccc1OC.Cl | 0.0932
Oc1ccc(-c2ccccc2)cc1CN1CCCCCC1 | -52.1
CC(C)n1c(-c2ccco2)csc1=Nc1cccnc1 | -10.3
CC(=O)c1c(C(C)=O)c(C)n(NC(=O)c2ccccc2O)c1C | 0.477
Cc1ccc(C)c(S(=O)(=O)Nc2cc3c4c(c2)CC(=O)N4CCC3)c1 | -0.333
COc1ccc(N2CCN(CCNC(=O)Nc3ccc(C)c(Cl)c3)CC2)cc1 | 15.9
CC(=O)c1cccc(OCC(O)CNCC2COc3ccccc3O2)c1.O=C(O)C(=O)O (centres unmarked) | -13.5
Cc1nc2ccccc2c2oc(C(=O)NCCCN3CCCC(C)C3)cc12 (centres unmarked) | -19
COC(=O)c1ccccc1NC(=O)CC#N | 7.85
CCN(Cc1nc2ccccc2c(=O)[nH]1)Cc1cc(=O)oc2cc(C)c(C)cc12 | -41.4
